Data on 45 molecules can be found in publication PMC4336329 (PLoS ONE, 2015).

In all, about 310,000 compounds went through this assay and about 2,200 (0.71%) showed an effect of 50% or more. The effect is printed as a negative number. The list shows a part of the results.

In this experiment the target is human ether-à-go-go-related gene (hERG) potassium channel (human, UniProt Q12809). The experiment can be described thus: primary screen, population patch clamp on CHO cells stably expressing hERG.
Chain of human ether-à-go-go-related gene (hERG) potassium channel (Q12809 whole entry, looked up): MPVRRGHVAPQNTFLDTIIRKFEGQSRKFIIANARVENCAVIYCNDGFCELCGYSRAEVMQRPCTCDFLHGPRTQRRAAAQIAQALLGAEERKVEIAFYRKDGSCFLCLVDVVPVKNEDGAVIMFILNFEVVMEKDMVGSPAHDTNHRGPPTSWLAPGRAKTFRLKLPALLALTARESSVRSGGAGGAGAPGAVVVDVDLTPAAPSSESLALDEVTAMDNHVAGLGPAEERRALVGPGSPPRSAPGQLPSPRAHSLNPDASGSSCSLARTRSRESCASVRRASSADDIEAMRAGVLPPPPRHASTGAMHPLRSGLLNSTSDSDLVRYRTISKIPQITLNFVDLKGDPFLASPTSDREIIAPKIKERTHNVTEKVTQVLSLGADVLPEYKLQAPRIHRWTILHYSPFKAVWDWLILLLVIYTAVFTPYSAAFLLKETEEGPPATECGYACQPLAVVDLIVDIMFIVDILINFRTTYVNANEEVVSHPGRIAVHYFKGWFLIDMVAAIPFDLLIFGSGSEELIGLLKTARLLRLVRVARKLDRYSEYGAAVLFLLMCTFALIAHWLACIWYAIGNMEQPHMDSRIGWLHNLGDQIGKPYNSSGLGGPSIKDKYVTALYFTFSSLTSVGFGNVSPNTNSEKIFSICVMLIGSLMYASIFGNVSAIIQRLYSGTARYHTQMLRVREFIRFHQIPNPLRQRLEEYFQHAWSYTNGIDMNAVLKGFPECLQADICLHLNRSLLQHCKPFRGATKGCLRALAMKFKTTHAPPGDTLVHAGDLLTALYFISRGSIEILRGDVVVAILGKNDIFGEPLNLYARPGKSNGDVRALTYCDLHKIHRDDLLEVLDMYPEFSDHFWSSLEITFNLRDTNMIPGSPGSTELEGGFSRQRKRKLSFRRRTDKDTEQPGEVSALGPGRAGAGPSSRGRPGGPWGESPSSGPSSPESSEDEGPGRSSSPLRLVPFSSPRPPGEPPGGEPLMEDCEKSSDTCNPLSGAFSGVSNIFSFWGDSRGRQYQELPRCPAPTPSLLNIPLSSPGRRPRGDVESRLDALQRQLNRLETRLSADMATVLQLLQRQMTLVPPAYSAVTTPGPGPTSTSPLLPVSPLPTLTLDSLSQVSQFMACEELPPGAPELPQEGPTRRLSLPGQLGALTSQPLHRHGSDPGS
`O=C(CSc1nnc(-c2ccccc2F)n1C1CCCCC1)N1CCCC1`: the “hERG current change (%, negative = inhibition) at 1uM” value stood at 2.4%.
As for `O=C1c2ccncc2C(=O)N1CNc1ccc(Cl)cc1`, the figure is 20.1%; as for `Cc1c(C)n(Cc2ccccc2)c2ncnc(Cl)c12`, 12.8%.
On to `Cn1c(SCC(=O)c2ccc(-c3ccccc3)cc2)nnc1-c1ccco1`, for which the “hERG current change (%, negative = inhibition) at 1uM” value is 11.5%.
Take `COc1ccc(/C=N/N2C(=N)SCC2=O)cc1`: the “hERG current change (%, negative = inhibition) at 1uM” value was 6.92%.
As for `CCC(C)NC(=O)CSc1nc2ccsc2c(=O)n1-c1ccc(OC)cc1` (stereo not drawn), the figure is -0.177%.
Turning to `COc1ccc(NS(=O)(=O)c2ccc3c(c2)CCN3C(=O)CCC(=O)O)cc1OC`, the “hERG current change (%, negative = inhibition) at 1uM” value stood at 4.41%.
As for `Cl.O=C(CNC1CCCCCC1)c1cccs1`, the figure is 8.77%; as for `O=C(Nc1ccc(F)cc1F)N1CCN(C/C=C/c2ccccc2)CC1`, -15.3%.
As for `CC1(C)Cc2cccc(Oc3cc(NN4CCCCC4)c([N+](=O)[O-])cc3[N+](=O)[O-])c2O1`, the figure is 16.2%; as for `C/C(=N\NC(=O)c1cc(C)nc2ccccc12)c1cccs1`, 5.24%; as for `CC(C)(C)n1ncc2c(=O)n(CC(=O)NCc3ccco3)cnc21`, 1.26%.
In the case of `COc1cccc(OCC(O)CO)c1` (stereo not drawn), the “hERG current change (%, negative = inhibition) at 1uM” value was determined as 4.53%.
As for `N#CCCn1cnc2ccccc21`, the figure is 12.9%; as for `Cc1cc(C)cc(OCC(=O)Nc2ccc(N3CCOCC3)cc2N2CCOCC2)c1`, 2.48%; as for `CNC(=S)N(CCc1c(C)[nH]c2ccc(OC)cc12)Cc1cc(OC)c(OC)c(OC)c1`, 8.79%.
As for `COc1ccccc1NC(=S)NC(=O)C1CC1`, the figure is 7.83%; as for `CN1/C(=C\C=[N+](C)c2ccccc2)C(C)(C)c2ccccc21.[I-]`, -8.39%; as for `Cc1cc(O)c2c(c1)C(O)(C1OC(CO)C(O)C(O)C1O)c1cccc(O)c1C2=O` (stereo not drawn), 8.45%.
In the case of `Cc1ccc2c(CC(=O)Nc3sccc3C(N)=O)coc2c1`, the “hERG current change (%, negative = inhibition) at 1uM” value is given as -2.41%.
Under `COc1ccc(CNC(=O)c2c(F)c(F)c(F)c(F)c2F)cc1` stands -13%.
Under `COC(=O)c1cn(NC(=O)c2cccc(N(C)C)c2)c(=O)c2ccccc12` stands 18.2%; under `Cc1cc(CN(C)C(=O)C2CCC(=O)N(CCc3cccc(F)c3)C2)on1` (stereo not drawn), 2.51%; under `OCC1(Cc2ccccc2)CCCN(Cc2cn[nH]c2-c2ccccc2)C1` (stereo not drawn), 6.96%.
As for `COc1cccc(CN2CCNC(=O)C2CC(=O)N(C)C2CCCCC2)c1` (stereo not drawn), the figure is 11.6%; as for `COc1ccc(/C=C/C(=O)O)cc1O`, 14%; as for `CCCCN(C(=O)c1[nH]c(C)c(C(=O)OCC)c1C)c1c(N)n(CCCC)c(=O)[nH]c1=O`, 8.9%.
Consider `CC(C)(C)OC(=O)N1CCC(NC(=O)c2nc[nH]c2C(=O)NCc2ccccc2)CC1`, for which the “hERG current change (%, negative = inhibition) at 1uM” value was found to be 22.5%.
Under `c1cncc(-c2nnc(SCc3cccc4ccccc34)o2)c1` stands 0.0047%; under `CCCCn1c(SCC(=O)Nc2cccc(C)n2)nnc1-c1ccco1`, -78%.
As for `COc1cccc(C(=O)CSc2nnc(COc3cccc4cccnc34)o2)c1`, the figure is 14.8%; as for `COc1ccc(Cc2nnc(Nc3ccccc3)s2)cc1Br`, 12.8%.
As for `CCCCc1ccc(NC(=O)CSc2nc(=O)n3cc(C)ccc3n2)cc1`, the figure is 13.8%; as for `Cc1ccc(S(=O)(=O)N(CC(=O)N2CCN(c3ccccc3F)CC2)C2CCCCC2)cc1`, 2.56%; as for `O=C1C2=C(CCCC2)C(=O)N1c1cccc(OCCBr)c1`, 14.6%.
In the case of `CCOc1cc(NC2CS(=O)(=O)CC2O)c(OCC)cc1NC(=O)c1ccccc1` (stereo not drawn), the “hERG current change (%, negative = inhibition) at 1uM” value is given as 10.5%.
For the molecule `O=S1(=O)CCOC[C@H](CC2CCCCC2)N1Cc1cccc(Cl)c1`, the “hERG current change (%, negative = inhibition) at 1uM” value was -4.14%.
Under `COc1ccc(C(O)(c2ccccc2OC)C(CN2CCOCC2)c2ccccc2)cc1.Cl` (stereo not drawn) stands 7.97%; under `Cc1cc(/C=C2/SC(=S)N(c3cccc(Cl)c3)C2=O)c(C)n1-c1cccnc1`, 4.88%.
Under `O=C1CC(c2ccccc2)c2ccc(O)cc2O1` (stereo not drawn) stands 11.8%; under `CC(=O)c1cnc(Nc2cccc(C)c2)s1`, 7.68%.
Under `COC(=O)c1sccc1NC(=O)Nc1ccc(F)cc1F` stands 7.72%; under `CCOc1ccc(-n2nnc3c(=O)n(CC(=O)c4ccccc4)cnc32)cc1`, 7.29%; under `Cc1ccccc1OCC(=O)Nc1nnc(C2CC2)s1`, 13.4%.
With `O=C(N/N=C/c1cc([N+](=O)[O-])ccc1O)C12CC3CC(CC(C3)C1)C2`, the “hERG current change (%, negative = inhibition) at 1uM” value is 14.7%.
